Entries with a single value are a further part of the results.
What was measured:
[1] = target: TSH receptor coated onto plastic tubes or ELISA plate wells (RSR Ltd) / detergent solubilised TSH receptor; assay: 125I-TSH on TSHR coated tubes, sample diluted in serum
[2] = target: TSH receptor coated onto plastic tubes or ELISA plate wells (RSR Ltd) / detergent solubilised TSH receptor; assay: 125I-TSH on TSHR coated tubes, sample diluted in assay buffer

units/L (NIBSC 90/672) ([1]; Fab at 3 ng/mL): 1.05 units/L | units/mg (NIBSC 90/672) ([1]; Fab at 3 ng/mL): 351 units/mg | units/L (NIBSC 90/672) ([1]; Fab at 10 ng/mL): 2.77 units/L | units/mg (NIBSC 90/672) ([1]; Fab at 10 ng/mL): 277 units/mg | units/L (NIBSC 90/672) ([1]; Fab at 30 ng/mL): 8 units/L | units/mg (NIBSC 90/672) ([1]; Fab at 30 ng/mL): 267 units/mg | units/L (NIBSC 90/672) ([1]; Fab at 100 ng/mL): 23.7 units/L | units/mg (NIBSC 90/672) ([1]; Fab at 100 ng/mL): 237 units/mg | units/L (NIBSC 90/672) ([2]; Fab at 3 ng/mL): 0.8 units/L | units/L (NIBSC 90/672) ([2]; Fab at 30 ng/mL): 9.6 units/L | units/L (NIBSC 90/672) ([2]; Fab at 100 ng/mL): 16.9 units/L
Substance: hMAb TSHR1 Fab

From patent US20060241289A1
